Data reported in the supplement of paper PMC7125110.
This sample is rich in variants without activity.

B1: glmS ribozyme (parent)
chain: AUAAAAGCGCCAGAACUACAGAAAUGUAGUUGACGAGGAGGAGGUUUAUCGAAUUUUCGGCGGAUGCCUCCAAA

Legend:
Details in all cases: with glucosamine-6-phosphate
glucosamine-6-phosphate [1] = variants of: B1; experiment: kcat; higher = faster cleavage; RNA array
Outline: (§1)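 Barcoded ribozyme variants, transcribed in situ by E. coli RNA polymerase on sequenced MiSeq chips, were followed via a hybridised Cy3 probe at 37 °C. Glucosamine-6-phosphate ranged from 40 μM to 10 mM in HEPES/KCl/Mg(OAc)2 buffer. kobs came from decay fits to per-tile medians, and kcat and KM from weighted Michaelis–Menten fits.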

glucosamine-6-phosphate [2] = variants of: B1; experiment: self-cleavage kobs at 160 uM GlcN6P; higher = faster cleavage; RNA array
Outline: as §1

glucosamine-6-phosphate [3] = variants of: B1; experiment: self-cleavage kobs at 2500 uM GlcN6P; higher = faster cleavage; RNA array
Outline: as §1

glucosamine-6-phosphate [4] = variants of: B1; experiment: self-cleavage kobs at 40 uM GlcN6P; higher = faster cleavage; RNA array
Outline: as §1

glucosamine-6-phosphate [5] = variants of: B1; experiment: self-cleavage kobs at 640 uM GlcN6P; higher = faster cleavage; RNA array
Outline: as §1

glucosamine-6-phosphate [6] = variants of: B1; experiment: self-cleavage kobs at 10000 uM GlcN6P; higher = faster cleavage; RNA array
Outline: as §1

| Variant | kcat (glucosamine-6-phosphate [1]) [s⁻¹] | self-cleavage kobs at 160 uM GlcN6P (glucosamine-6-phosphate [2]) [s⁻¹] | self-cleavage kobs at 2500 uM GlcN6P (glucosamine-6-phosphate [3]) [s⁻¹] | self-cleavage kobs at 40 uM GlcN6P (glucosamine-6-phosphate [4]) [s⁻¹] | self-cleavage kobs at 640 uM GlcN6P (glucosamine-6-phosphate [5]) [s⁻¹] | self-cleavage kobs at 10000 uM GlcN6P (glucosamine-6-phosphate [6]) [s⁻¹] |
| --- | --- | --- | --- | --- | --- | --- |
| A6C A39C | < 1e-05 | < 1e-05 |  |  |  |  |
| A6U C11G | < 1e-05 |  | < 1e-05 |  |  |  |
| A6U C61A | < 1e-05 |  |  |  |  |  |
| G7A C8U U49G G62C | < 1e-05 |  | < 1e-05 | < 1e-05 |  |  |
| C8A U69C | < 1e-05 |  | < 1e-05 |  | < 1e-05 |  |
| G9A A12G | < 1e-05 |  |  | < 1e-05 | < 1e-05 |  |
| G9C G63U | < 1e-05 |  |  | < 1e-05 |  |  |
| C10A C67U | < 1e-05 |  |  |  |  |  |
| C10G A15U | < 1e-05 | < 1e-05 |  | < 1e-05 | < 1e-05 |  |
| C10G G59C U69G C70A | < 1e-05 |  | < 1e-05 |  |  | < 1e-05 |
| C10U A12U U31C U54G C67A | < 1e-05 |  |  |  |  |  |
| C10U C16A | < 1e-05 |  |  | < 1e-05 |  |  |
| C10U C68A | < 1e-05 |  |  | < 1e-05 |  |  |
| C10U G32C U55G | < 1e-05 |  |  |  |  |  |
| C10U U30A | < 1e-05 |  |  |  |  |  |
| C11A A12G G13A A15C C16U U17A A18C C19A A20G G21A | < 1e-05 |  |  | < 1e-05 |  |  |
| C11G A52G | < 1e-05 |  |  | < 1e-05 |  | < 1e-05 |
| C11G C50A | < 1e-05 |  |  | < 1e-05 |  | < 1e-05 |
| C11G G35A | < 1e-05 |  |  |  | < 1e-05 |  |

| Variant | kcat (glucosamine-6-phosphate [1]) [s⁻¹] | self-cleavage kobs at 160 uM GlcN6P (glucosamine-6-phosphate [2]) [s⁻¹] | self-cleavage kobs at 2500 uM GlcN6P (glucosamine-6-phosphate [3]) [s⁻¹] | self-cleavage kobs at 40 uM GlcN6P (glucosamine-6-phosphate [4]) [s⁻¹] | self-cleavage kobs at 640 uM GlcN6P (glucosamine-6-phosphate [5]) [s⁻¹] | self-cleavage kobs at 10000 uM GlcN6P (glucosamine-6-phosphate [6]) [s⁻¹] |
| --- | --- | --- | --- | --- | --- | --- |
| C11G U54G | < 1e-05 |  |  |  |  |  |
| C11U C50U | < 1e-05 | < 1e-05 |  |  |  |  |
| A12U G13C A14U | < 1e-05 |  |  | < 1e-05 | < 1e-05 | < 1e-05 |
| A12U G35A | < 1e-05 | < 1e-05 |  | < 1e-05 |  | < 1e-05 |
| G13U C61G | < 1e-05 |  |  |  |  | < 1e-05 |
| A14C G37U | < 1e-05 |  |  |  |  |  |
| A14G G60U | < 1e-05 | < 1e-05 |  | < 1e-05 |  |  |
| A14U G35A | < 1e-05 | < 1e-05 |  |  |  |  |
| A15C G51U | < 1e-05 |  | < 1e-05 |  |  |  |
| A15G G51U C70U | < 1e-05 |  |  |  |  |  |
| A15U C61U | < 1e-05 |  |  | < 1e-05 | < 1e-05 | < 1e-05 |
| A15U G60C | < 1e-05 | < 1e-05 |  |  | < 1e-05 | < 1e-05 |
| C16A C61A | < 1e-05 |  |  | < 1e-05 |  |  |
| C16A G51U | < 1e-05 |  |  | < 1e-05 |  | < 1e-05 |
| G29A G44C | < 1e-05 |  |  | < 1e-05 |  |  |
| G29C G38U | < 1e-05 | < 1e-05 |  |  |  |  |
| G29C U55A C61U | < 1e-05 |  |  |  | < 1e-05 |  |
| G29C U55C U69G | < 1e-05 |  |  |  |  |  |
| G29U A52C | < 1e-05 |  |  |  |  |  |

| Variant | kcat (glucosamine-6-phosphate [1]) [s⁻¹] | self-cleavage kobs at 160 uM GlcN6P (glucosamine-6-phosphate [2]) [s⁻¹] | self-cleavage kobs at 2500 uM GlcN6P (glucosamine-6-phosphate [3]) [s⁻¹] | self-cleavage kobs at 40 uM GlcN6P (glucosamine-6-phosphate [4]) [s⁻¹] | self-cleavage kobs at 640 uM GlcN6P (glucosamine-6-phosphate [5]) [s⁻¹] | self-cleavage kobs at 10000 uM GlcN6P (glucosamine-6-phosphate [6]) [s⁻¹] |
| --- | --- | --- | --- | --- | --- | --- |
| G29U G38C | < 1e-05 |  |  |  | < 1e-05 |  |
| G29U G51A | < 1e-05 |  |  |  |  |  |
| U30C A42U | < 1e-05 |  |  |  |  | < 1e-05 |
| U30C G38U | < 1e-05 |  |  |  |  |  |
| U30C U65C | < 1e-05 |  |  | < 1e-05 | < 1e-05 |  |
| U31C G38A | < 1e-05 |  | < 1e-05 |  | < 1e-05 |  |
| G32A A36C | < 1e-05 |  |  | < 1e-05 |  |  |
| G32A G59U C71A | < 1e-05 |  |  | < 1e-05 |  |  |
| G32A G63A | < 1e-05 |  |  |  | < 1e-05 |  |
| G32C G40U | < 1e-05 |  |  |  |  |  |
| G32C U47C G62C C71U | < 1e-05 |  |  | < 1e-05 |  |  |
| A33C C34U | < 1e-05 |  |  |  |  | < 1e-05 |
| A33C G62A | < 1e-05 |  | < 1e-05 | < 1e-05 |  | < 1e-05 |
| A33C U57C | < 1e-05 |  |  | < 1e-05 |  |  |
| A33G | < 1e-05 |  |  | < 1e-05 |  | < 1e-05 |
| A33G G60U | < 1e-05 |  |  |  |  | < 1e-05 |
| A33G G62U | < 1e-05 |  | < 1e-05 |  |  | < 1e-05 |
| A33G G63U | < 1e-05 | < 1e-05 | < 1e-05 |  |  |  |
